# The campaign covered roughly 310,000 compounds. About 14,000 (4.5%) showed an effect of 50% or more. The effect is printed as a negative number. The list shows a part of the results.
# Biological target: human ether-à-go-go-related gene (hERG) potassium channel (human, UniProt Q12809)
# Experiment: primary screen, population patch clamp on CHO cells stably expressing hERG
# 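Further: peak tail current of the secondary pulse compared with the same well before compound.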
# human ether-à-go-go-related gene (hERG) potassium channel, sequence (Q12809 whole entry, looked up): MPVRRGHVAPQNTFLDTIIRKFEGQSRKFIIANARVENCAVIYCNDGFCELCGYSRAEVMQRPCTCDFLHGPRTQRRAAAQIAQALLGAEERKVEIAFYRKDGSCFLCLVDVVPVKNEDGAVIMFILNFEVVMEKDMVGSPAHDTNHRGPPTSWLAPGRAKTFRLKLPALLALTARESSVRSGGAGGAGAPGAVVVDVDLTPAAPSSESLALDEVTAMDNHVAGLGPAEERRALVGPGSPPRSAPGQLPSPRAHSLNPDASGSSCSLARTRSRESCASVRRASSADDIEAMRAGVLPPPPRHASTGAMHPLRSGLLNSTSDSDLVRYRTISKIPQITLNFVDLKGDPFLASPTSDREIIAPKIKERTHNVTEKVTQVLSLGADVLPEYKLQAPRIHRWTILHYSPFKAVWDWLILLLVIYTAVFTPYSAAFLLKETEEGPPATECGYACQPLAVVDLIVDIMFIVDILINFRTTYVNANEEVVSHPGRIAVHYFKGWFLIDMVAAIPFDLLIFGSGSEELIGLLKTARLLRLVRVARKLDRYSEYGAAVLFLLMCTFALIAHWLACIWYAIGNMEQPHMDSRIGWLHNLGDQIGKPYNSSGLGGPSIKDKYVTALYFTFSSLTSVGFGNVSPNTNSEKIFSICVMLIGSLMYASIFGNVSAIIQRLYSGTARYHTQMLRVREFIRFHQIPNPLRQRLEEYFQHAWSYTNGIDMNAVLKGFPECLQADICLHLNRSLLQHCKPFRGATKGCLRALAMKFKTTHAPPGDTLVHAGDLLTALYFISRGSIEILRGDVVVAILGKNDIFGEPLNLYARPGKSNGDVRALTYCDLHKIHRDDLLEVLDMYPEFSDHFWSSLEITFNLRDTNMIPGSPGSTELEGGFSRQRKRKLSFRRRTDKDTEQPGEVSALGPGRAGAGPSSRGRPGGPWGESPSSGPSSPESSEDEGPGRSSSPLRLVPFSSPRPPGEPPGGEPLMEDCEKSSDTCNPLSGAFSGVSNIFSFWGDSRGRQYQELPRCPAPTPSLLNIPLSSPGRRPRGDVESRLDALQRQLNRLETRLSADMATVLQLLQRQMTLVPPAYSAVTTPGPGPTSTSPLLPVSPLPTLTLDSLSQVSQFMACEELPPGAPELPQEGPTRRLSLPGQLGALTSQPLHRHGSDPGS
row,SMILES,"hERG current change (%, negative = inhibition) at 10uM"
1,C=CCn1c(C)nc2ccccc2c1=O,5.76%
2,CC(C)CCCN1C(Nc2ccccc2)=NC[C@@H]1CC(C)C,-60.1%
3,COC(=O)/C(C#N)=C(/Nc1ccc(F)c(Cl)c1)C(F)(F)F,13.1%
4,CCC(C)c1ccccc1NS(=O)(=O)c1cnn(CC)c1 (stereo not shown),0.986%
5,O=C(Nc1cc(Cl)ccc1-n1cncn1)c1cc(S(=O)(=O)N2CCOCC2)ccc1F,-34.7%
6,O=C(CSc1nnnn1-c1ccc(O)cc1)N1N=C(c2ccc3ccccc3c2)CC1c1ccccc1 (stereo not shown),10.9%
7,CC(=O)c1ccc(NC(=O)C(C)Sc2nnc(C3CC3)n2C2CC2)cc1 (stereo not shown),-27.9%
8,CC(=O)c1sc(NC(=O)c2ccc(F)c(F)c2)nc1C,19.6%
9,CC(=O)c1ccc(N2CCN(C(=O)CCS(=O)(=O)c3ccc4c(c3)NC(=O)CS4)CC2)cc1,22.8%
10,O=C(Cc1cccc2ccccc12)OCn1nnc2ccccc2c1=O,-9.73%
11,O=C(CN1CCc2ccccc2C1)N1CCN(S(=O)(=O)c2ccccc2)CC1,-21.9%
12,Fc1ccc2c(-c3cccc(C(F)(F)F)c3)c(-c3ccccc3)ncc2c1,14.1%
13,Cc1ccc(CNC(=O)/C=C/c2ccc(S(=O)(=O)NCc3ccco3)cc2)cc1,-1.37%
14,Cc1cc(Cl)c(S(=O)(=O)NC2CCCCC2)cc1OCC(=O)Nc1nncs1,-22.1%
15,O=C(Oc1ccc2ccc(OC(=O)N3CCCCCC3)cc2c1)N1CCCCCC1,-6.72%
16,Oc1ccc(CCc2n[nH]c(=S)n2-c2ccc(F)cc2)cc1,-22.2%
17,Cc1c(C(=O)Nc2ccccc2[N+](=O)[O-])csc1-c1ccccc1,-2.12%
18,O=C(c1ncn(Cc2ccccc2)c1C(=O)N1CCc2ccccc2C1)N1CCc2ccccc2C1,-30.4%
19,CC(Sc1nc2ccccc2s1)C(=O)Nc1ccc2c(c1)OCO2 (stereo not shown),5.88%
20,c1csc(-c2csc(-c3cccs3)n2)c1,10.1%
21,CC(=O)Nc1ccc2nc(SCC(=O)Nc3ccc(N4CCOCC4)c(Cl)c3)sc2c1,0.699%
22,CC(C)(C)C(=O)Nc1cccc(C(=O)Nc2cc(C(=O)O)cc(C(=O)O)c2)c1,8.65%

row,SMILES,"hERG current change (%, negative = inhibition) at 10uM"
1,CC(=O)NC12CC3CC(C1)CC(C(=O)N1CCN(S(=O)(=O)c4ccc(C(C)C)cc4)CC1)(C3)C2,7.66%
2,CCn1c(Oc2ccc(F)cc2)nc2c1c(=O)n(C)c(=O)n2C,-4.53%
3,COc1ccc(CN2CCN(Cc3ccc4cc(F)ccc4n3)CC2CCO)c(C)c1C (stereo not shown),-63.7%
4,COc1ccc(NC(=O)Cn2nnc3ccccc32)c([N+](=O)[O-])c1,9.14%
5,C=CCNC(=O)c1cccc(NS(=O)(=O)c2ccc(Cl)cc2)c1,-15.8%
6,Cn1c(=O)[nH]c(=O)c2c1ncn2CCCc1ccccc1,1.26%
7,CN(C)S(=O)(=O)c1ccc(C(=O)NCC(=O)N/N=C/c2ccccc2)cc1,8.44%
8,Cn1cc(/C=N\O)nc2c(=O)n(-c3ccccc3)c(=O)nc1-2,24.4%
9,CC(C)(C)NCc1cc(Cl)ccc1OCc1cccs1.Cl,-32.5%
10,CCN1C(=O)[C@@H]2[C@@H](c3ccc(-c4cccc(Cl)c4)cc3)N3CCC[C@@]3(C(=O)OC)[C@@H]2C1=O.O=C(O)C(F)(F)F,-18.9%
11,Cc1cc(Cl)ccc1OCC(=O)Nc1cccnc1,9.56%
12,C/C=C/C(=O)N1c2ccc(C)cc2C(C)=CC1(C)C,-12.8%
13,O=C1Nc2ccccc2C(c2ccccc2)=NC1O (stereo not shown),5.52%
14,CCc1nnc(N/N=C/c2ccc(N3CCC(C)CC3)c([N+](=O)[O-])c2)n1N,12.6%
15,COc1ccccc1NC(=O)Nc1ccc(C)cn1,21.5%
16,COc1ccc(NC(=O)c2cncc(Br)c2)cc1S(=O)(=O)N1CCCCC1,-4.03%
17,COc1ccc(OC)c(N=C(N)N=C(N)N)c1,18.9%
18,COc1ccc(C2Oc3ccccc3C3=C2C(c2cccs2)n2ncnc2N3)cc1 (stereo not shown),-52.1%
19,Cc1ccc(C)c2[nH]c(=O)c(CN(Cc3ccc4c(c3)OCO4)Cc3nnnn3Cc3ccco3)cc12,-2.72%
20,O=C(Nc1cccc(-n2cnnn2)c1)c1ccco1,-0.205%
21,CCOc1cc(-c2noc(CCC(=O)NCCc3ccccc3)n2)ccc1OC,1.79%
22,CCOc1cc(S(=O)(=O)NCc2ccc3c(c2)OCO3)ccc1F,-0.192%

row,SMILES,"hERG current change (%, negative = inhibition) at 10uM"
1,COc1ccc(C(=O)Nc2ccccc2)cc1S(=O)(=O)Nc1cc(C)on1,-0.0819%
2,CCCCN(C)C(=O)CCC(=O)Nc1ccc2nc(N3CCN(C)CC3)cc(C)c2c1,11%
3,O=C(N/N=C/c1oc(O)c2ccccc12)c1ccccc1,17.4%
4,COc1ccc(CCNC(=O)CCS(=O)(=O)c2ccc3c(c2)CCN3C(C)=O)cc1OC,-7.62%
5,Cc1ccc(C(=O)O/N=C(\N)c2ccccc2)c(Cl)c1,5.47%
6,O=C(NCc1cccs1)c1cc(-c2ccncc2)nc2ccc(Br)cc12,-9.33%
7,CCOC(=O)C1(Cc2ccc(Cl)cc2)CCN(C(=O)c2ccoc2)CC1,-49.4%
8,O=C1NC2(CCc3ccccc32)C(=O)N1CCOc1ccc(Cl)cc1 (stereo not shown),-29.8%
9,O=C(/C=C/Nc1ccccc1)C(F)(F)F,-3.35%
10,Cc1ccc(S(=O)(=O)c2cc(O)ccc2O)cc1C,-11.4%
11,Nc1nonc1N/N=C\c1ccccc1,-2.1%
12,COC(=O)c1cc(C(=O)OC)cc(N2C(=O)CN=C2Nc2nc(C)cc(C)n2)c1,-0.946%
13,O=C(Cc1csc(-c2ccccc2)n1)NCc1ccc(F)cc1,1.55%
14,COc1ccc(-c2noc(-c3ccccc3C(=O)Nc3cccnc3)n2)cc1OC,-31%
15,CCCCC(=O)Nc1ccc(C(=O)NNC(=O)c2ccccc2Br)cc1,-12.6%
16,CCOC(=O)C(C(=O)OCC)C(Nc1cccc(Br)c1)c1ccccc1 (stereo not shown),9.24%
17,CC(C(=O)N1CCN(Cc2ccccc2)CC1)c1ccc([N+](=O)[O-])cc1 (stereo not shown),-43.7%
18,CCCn1cc(NC(=O)c2cc(-c3ccccc3)on2)cn1,-21.5%
19,CC1CCN(c2ccc([N+](=O)[O-])cc2C(=O)O)CC1,7.28%
20,Nc1c(S(=O)(=O)c2ccccc2)cnc2c(-c3ccc(F)cc3)cnn12,-11.7%
21,Cl.O=C(OCCN1CCCCC1)c1ccc(Cl)cc1,-42%
22,CCCOc1c(Cl)cc(/C=N/O)cc1OCC,-7.95%

row,SMILES,"hERG current change (%, negative = inhibition) at 10uM"
1,Cc1ccc(C(=O)Nc2cc(=O)n(C)c(=O)n2C)cc1C,6.47%
2,Nc1c(Cl)ncnc1N/N=C/c1cccc(O)c1,-6.6%
3,CC1(C)Cc2ccccc2-c2nnc(-c3cccnc3)n21,4.59%
4,O=C(N[C@@H](Cc1ccccc1)C(=O)O)c1ccc(C(F)(F)F)cc1,5.56%
5,COc1cccc2c1C(=O)C=C(C)C2=O,-9.54%
6,CC(=O)Nc1c(C#N)c(C(C)(C)C)cn1C,7.93%
7,COc1ccc(S(=O)(=O)N2CCCOC2CNC(=O)C(=O)NCc2cccnc2)cc1 (stereo not shown),16.8%
8,O=S(=O)(c1ccc(Cl)s1)N1CCc2ccccc2C1,7.13%
9,CCc1ccc(C(C(=O)NC2CCCC2)N(CCOC)C(=O)CCC(=O)Nc2cc(C)on2)cc1 (stereo not shown),-1.8%
10,CC(C)NC(=O)c1ccc(-c2ccc(Cl)c(C(F)(F)F)c2)o1,6.71%
11,Cc1nc(-c2cccc(NC(=O)c3ccco3)c2)cs1,-0.548%
12,COc1ccc(CNS(=O)(=O)c2cn(C)c(=O)n(C)c2=O)cc1,24.4%
13,Cc1cc(C)c(C)c(S(=O)(=O)N2CCN(C(=O)CNC(=O)c3ccco3)CC2)c1C,-13.6%
14,CC(Sc1nnnn1-c1ccccc1)C(=O)Nc1ccccc1-c1ccccc1 (stereo not shown),4.1%
15,CCOc1cc(N2CCOCC2)c(OCC)cc1NC(=O)c1ccc(C)cc1,5.87%
16,O=C(Nc1ccc(Cl)cc1)N(Cc1nc2ccccc2c(=O)[nH]1)Cc1cccs1,-12.4%
17,O=C(Nc1nnc(-c2ccccc2Cl)o1)c1ccco1,5.5%
18,CC1Cc2ccccc2N1S(=O)(=O)c1cnc(Cl)c(Br)c1 (stereo not shown),3.94%
19,O=C(CSc1nnc(NC(=O)c2ccco2)s1)Nc1ccccc1Br,0.776%
20,Br.Clc1ccc2nc(CN3CCCc4ccccc43)cn2c1,-8.72%
21,CCOC(=O)c1ccc(N2C(=O)CC(N3CCOCC3)C2=O)cc1 (stereo not shown),-8.08%
22,CC(NC(=O)c1ccccc1Cl)c1nnc(SCC(=O)Nc2ccc(C(=O)O)cc2)n1C (stereo not shown),11.6%

# Source: publication PMC4336329 (PLoS ONE, 2015)
